Experimental findings from PubChem BioAssay AID1346428 (National Center for Advancing Translational Sciences (NCATS), 2018) are described below.

Molecules are shown by their SMILES. “And” between values parts separate entries of the source, which are not always exact repeats. Identical values can stand only once. The whole screen tested about 48,000 compounds, of which about 1,200 (2.5%) were called active. Inconclusive results (about 2%) are left out.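 How the source made its calls: active means activation of at least 60% and not above a set upper limit (about 1 call in 100 departs from these limits); inconclusive means activation of 40% to 60%, or above that upper limit; inactive means activation under 40%.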 The list shows a part of the results.

The assay deals with Probable G-protein coupled receptor 32 (Homo sapiens) (UniProt O75388). Briefly: qHTS for Agonists of Human Resolvin D1 Receptor DRV1. Further: 0% is about no effect. As to conditions: CHO-K1 GPR32 beta-arrestin PathHunter luminescence, 90 min; at 76.9 µM; stronger effect = higher value; zero percent set by DMSO-only wells. An outline of the steps: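 Luminescent readout of beta-Gal complementation quantifies ligand-induced beta-arrestin association with GPR32 in CHO-K1 cells; 90 min compound incubation at 37 °C, detection 1 h at room temperature.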
Sequence of UniProt O75388 (O75388 whole entry, looked up): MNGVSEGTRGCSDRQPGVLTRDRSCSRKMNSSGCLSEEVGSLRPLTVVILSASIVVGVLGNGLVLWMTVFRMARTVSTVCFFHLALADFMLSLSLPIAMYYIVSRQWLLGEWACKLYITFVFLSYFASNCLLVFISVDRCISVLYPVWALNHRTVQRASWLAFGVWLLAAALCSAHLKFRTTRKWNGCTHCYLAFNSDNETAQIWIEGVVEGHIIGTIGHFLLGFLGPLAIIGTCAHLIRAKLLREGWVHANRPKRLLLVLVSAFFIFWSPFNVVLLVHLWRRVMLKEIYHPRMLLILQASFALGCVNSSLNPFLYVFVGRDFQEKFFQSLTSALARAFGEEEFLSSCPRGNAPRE
(In qHTS, concentration-response curves come from the screen itself.)
For the molecule `CCc1ccc(N2C(=O)CSC23C(=O)N(Cc2cccc(OC)c2)c2ccccc23)cc1` (stereo not drawn), the activation is inactive: -20.4%.

Turning to `C=CCc1ccc(OCc2ccc(C(=O)Nc3ccc(NC(C)=O)cc3)o2)c(OC)c1`, the activation is inactive: -5.83%.

Regarding `CCc1oc2ccccc2c1C(=O)c1cc(I)c(O)c(I)c1`, the activation was inactive: -0.418%.

With `Cc1cccc(Cn2cnc3c(oc4ccccc43)c2=O)c1`, the activation is inactive: -9.67%.

With `COc1cccc(NC(=O)Cn2cc(C(=O)c3ccc(F)cc3)c(=O)c3cc(OC)ccc32)c1`, the activation was inactive: 23.3%.

`CCN1CCN(C(c2ccccc2F)c2c(O)cc(C)n(CCOC)c2=O)CC1` (stereo not drawn): the activation was inactive: -7.62%.

With `N#Cc1ccc(NC2=NS(=O)(=O)c3ccccc32)cc1`, the activation is inactive: -1.61%.

Take `CCC(=O)N1CCc2cc(CNS(=O)(=O)c3ccc(Br)s3)ccc21`: the activation is inactive: -2.21%.

`Cc1cc(C)cc(NC(=O)N2CCC(CN3CCc4ccccc4C3)CC2)c1`: the activation is inactive: -24%.

Take `Cc1ccc(NS(=O)(=O)c2ccc3[nH]c4c(c3c2)CCCCCC4)cc1`: the activation was active: 102%.

In the case of `CCc1c(C)sc2c1CCN(C(=O)Nc1cc(C)ccc1OC)C2c1ccc(F)cc1` (stereo not drawn), the activation is inactive: -1.28%.

In the case of `COc1ccc(-c2c(C)nn3c(N4CCN(c5ccccc5F)CC4)cc(C)nc23)cc1OC`, the activation is inactive: -5.74%.

For `CC1CCCN(S(=O)(=O)c2ccc(N3CCCCS3(=O)=O)cc2)C1` (stereo not drawn), the activation is inactive: -4.23%.

As to `COC(=O)c1c(NC(=O)c2nc(SCc3ccccc3C)ncc2Cl)sc2c1CCCC2`, the activation is inactive: -0.496%.

For `Cc1ccc(C)c(N2C(=O)N(C)c3ccccc3S2(=O)=O)c1`, the activation is inactive: 2.79%.

Consider `COc1ccc(-n2c(C)nc3cc(C(=O)NC4CCCCCC4)ccc32)cc1`, for which the activation is inactive: -4.22%.

For `CCCN(CCC)CCNC(=O)c1sc2nc3n(c(=O)c2c1C)CCCCC3`, the activation was inactive: -3.39%.

Take `Cn1c(=O)n(C)c2cc(N3CCOCC3)c(NC(=O)c3c(F)cccc3F)cc21`: the activation was inactive: -21.2%.

With `COc1ccc(C(=O)NCC(c2ccc(N(C)C)cc2)N2CCc3ccccc32)cc1` (stereo not drawn), the activation was inactive: -26.8%.

As to `Cc1cc(C)c2sc(NC(=O)c3ccc(S(=O)(=O)N4CCOCC4)cc3)nc2c1`, the activation is inactive: -8.62%.

As to `CCCN1CCN(c2cc3c(cc2F)c(=O)c(S(=O)(=O)c2ccc(Cl)cc2)cn3C)CC1`, the activation is inactive: 3.46%.

As for `O=C(NC1CC(=O)N(c2cccc(F)c2)C1)C(c1ccccc1)c1ccccc1` (stereo not drawn), the activation is inactive: -14.3%.

Consider `COc1cc(OC)c(NC(=O)Nc2c(C)n(C)n(-c3ccccc3)c2=O)cc1Cl`, for which the activation is inactive: -7.43%.

On to `CCc1cc2c(-c3ccccc3)cc(=O)oc2c2c1OCN(Cc1ccc(F)cc1)C2`, for which the activation was inactive: -23.2%.

As for `CCOc1ccc(CNC(=O)C2Cc3ccccc3N2C(=O)CC)cc1` (stereo not drawn), the activation is inactive: 6.58%.

As to `COC(=O)c1ccccc1NC(=O)c1ccc2c(=O)n3c(nc2c1)CCCCC3`, the activation is inactive: -28.4%.

With `CCC1C(=O)OCC1Cc1cncn1C` (stereo not drawn), the activation was inactive: -7.27% and inactive: -2.44% and inactive: -11.3%.

For the molecule `CCC(Oc1ccccc1)C(=O)Nc1ccc(OCc2cc(=O)n3ccccc3n2)cc1` (stereo not drawn), the activation was inactive: -14.2%.

With `NC(=O)c1ncn([C@@H]2O[C@H](CO)[C@@H](O)[C@H]2O)c1O`, the activation is inactive: -30.9% and inactive: 0.794%.

Take `O=C(CN1C=NS(=O)(=O)c2ccc(C(F)(F)F)cc21)Nc1cccc(C(F)(F)F)c1`: the activation is active: 98.7%.

For `CCOC(=O)c1cc(NC(=O)c2ccc(Cl)cc2)c(=O)n2c1oc1ccccc12`, the activation is inactive: 16.4%.

`O=C(Nc1ccc(Br)cc1)c1cccc(C(=O)Nc2ccc(Br)cc2)c1`: the activation was active: 71.1%.

Take `O=S(=O)(c1ccc(Cl)cc1)c1nc(-c2ccccc2)oc1N1CCN(c2ccccc2)CC1`: the activation is inactive: -2.74%.

With `CCn1c(/C(C#N)=C/c2ccccc2Cl)nc2ccccc21`, the activation was inactive: 9.92%.

For `CCc1cccc(NC(=O)CSc2nc3ccsc3c(=O)n2CC)c1`, the activation is inactive: 28.5%.

In the case of `CCc1nc(SCc2cc(=O)c3cc(C)ccc3[nH]2)n[nH]1`, the activation was inactive: -0.203%.

For `CCOc1ccc(C2CC(=O)c3c([nH]c(C(=O)OC4CCC(C)CC4)c3C)C2)cc1` (stereo not drawn), the activation is inactive: -5.8%.

For the molecule `COc1ccccc1N1CCN(C(=O)CN2C(=O)COc3ccc(S(=O)(=O)N4CCCC4)cc32)CC1`, the activation is inactive: -9.66%.

Consider `Cc1ccc(CN(Cc2cccn2-c2nnc(N3CCCC3=O)s2)C(=O)Nc2ccccc2C(F)(F)F)cc1`, for which the activation is inactive: -25.4%.

`Cc1ccc(CNC(=O)Cn2c(=O)n(Cc3ccccc3)c(=O)c3sc4ccccc4c32)cc1`: the activation was inactive: -2.31%.

Regarding `CCOC(=O)c1c(C)oc2nc(C)nc(NCCCN3CCN(c4ccc(F)cc4)CC3)c12`, the activation is inactive: -1.22%.

Consider `Cc1ccc(C(C)C)c(OCCCn2c(=O)oc3ccccc32)c1`, for which the activation is inactive: -3.73%.

As to `COc1ccccc1NC(=O)c1ccc2oc(=O)c(S(=O)(=O)c3ccccc3)cc2c1`, the activation was inactive: 3.48%.

`COc1ccc(C(=O)NCCn2cc(SCc3cc(C)ccc3C)c3ccccc32)cc1`: the activation is inactive: -24.3%.

On to `Cc1cc(N2CCN(c3cccc(C)c3C)CC2)n2nc(C)c(-c3ccc(Cl)cc3)c2n1`, for which the activation is inactive: -4.32%.

As for `COc1ccc(-n2c(-c3ccco3)nc3c(cnn3-c3ccccc3C)c2=O)cc1`, the activation was inactive: -5.39%.

In the case of `Cc1ccccc1CNC(=O)c1cc2cc(S(=O)(=O)N3CCCCC3)ccc2n1C`, the activation was inactive: -11.8%.

With `CCOc1ccc(C2c3c(oc4ccccc4c3=O)C(=O)N2c2nnc(C)s2)cc1OC` (stereo not drawn), the activation is inactive: -2.67%.

Consider `Cc1cc(C)n2c(Nc3ccccc3)c(-c3ccccc3)nc2n1`, for which the activation is inactive: -26%.

Regarding `Cc1cc(C)c2oc(C(=O)Nc3ccc(S(=O)(=O)N4CCC(C)CC4)cc3)cc(=O)c2c1`, the activation was inactive: -0.498%.

In the case of `Cc1ccc(CN2CCN(C3CCN(C(=O)Nc4ccccc4C(F)(F)F)CC3)C(=O)C2=O)cc1`, the activation was inactive: -2.69%.

In the case of `Cc1cccc(Cn2cnc3c(cnn3-c3ccc(Cl)cc3)c2=O)c1`, the activation was inactive: -0.874%.

In the case of `Cn1c(CNC(=O)CSc2nc(-c3cccc(Cl)c3)nc3cc(=O)[nH]n23)nc2ccccc21`, the activation is inactive: 13%.

Take `CCn1c(=O)cc(OCC(=O)N2CCN(c3ccccc3OC)CC2)c2ccccc21`: the activation is inactive: 25.8%.

Regarding `Cc1ccc(S(=O)(=O)n2nc(-c3ccco3)nc2NCc2ccccc2Cl)cc1`, the activation is inactive: -21.2%.

In the case of `COc1cccc(NC(=O)C2CCN(c3nc4ccccc4nc3C(F)(F)F)CC2)c1`, the activation was inactive: -22.2%.

For `Cc1cccc(Cn2nnc(C(=O)Nc3cc(C)ccc3C)c2N)c1`, the activation is inactive: 15.6%.

As to `Cc1cccc(C)c1NC(=O)CCCN1C(=O)CCn2nc(-c3cn(C)c4ccccc34)cc21`, the activation is inactive: 11.7%.

With `CC(C)NC(=O)C1CCCN(c2ncnc3c2nc2n3CCCCC2)C1` (stereo not drawn), the activation was inactive: -4.96%.

As to `CC(NC(=O)c1ccc2c(c1)N(Cc1ccc(Cl)cc1)C(=O)c1ccccc1S2=O)c1ccccc1` (stereo not drawn), the activation was inactive: -4.43%.

As to `Cc1ccc(CNC(=O)CCCn2c(=O)c3ccccc3n(Cc3ccccc3C)c2=O)cc1`, the activation is inactive: -8.39%.

`COc1ccc(Cl)cc1NC(=O)Cn1cnc2c1c(=O)n(C)c(=O)n2C`: the activation is inactive: 1.25%.

For the molecule `O=C(Nc1ccccc1C(=O)OCc1cc(=O)n2ccsc2n1)c1ccc(Cl)cc1`, the activation is inactive: 3.67%.

As to `O=C(COCc1cc(-c2ccc(F)cc2)on1)Nc1cccc(Cl)c1Cl`, the activation is inactive: -12.8%.

In the case of `CCCc1cc(=O)[nH]c2nnc(SCC(=O)Nc3ccc(OC)cc3)n12`, the activation is inactive: -9.61%.

With `COc1cccc(N2CCN(c3ncnc4c3c(-c3ccccc3)cn4-c3ccc(C)cc3)CC2)c1`, the activation was inactive: -15.5%.

Turning to `CC(=O)Nc1c(I)c(NC(C)=O)c(I)c(C(=O)O)c1I`, the activation is inactive: -6.68%.

Consider `O=C(NCc1cccn1Cc1ccccc1)Nc1ccc(Br)cc1F`, for which the activation was inactive: -6.28%.

Turning to `Cc1ccc(S(=O)(=O)c2nnn3c2nc(NC(C)c2ccccc2)c2sccc23)cc1` (stereo not drawn), the activation is inactive: -13.9%.

In the case of `COc1cc2nc(N3CCN(C(=O)OCc4ccccc4)C(C(=O)NC(C)(C)C)C3)nc(N)c2cc1OC` (stereo not drawn), the activation was inactive: -21.3%.

Consider `CCOc1ccc(N2CC(NC(=O)c3ccc(S(=O)(=O)N4CCCC4)cc3)CC2=O)cc1` (stereo not drawn), for which the activation is inactive: -6.31%.

As for `Cc1ccc(Cl)cc1NC(=O)Nc1nnc(N2CCCC(C)C2)s1` (stereo not drawn), the activation is inactive: -0.904%.

For the molecule `COc1ccccc1CNC(=O)CCNS(=O)(=O)c1ccc2c(c1)CCCC(=O)N2`, the activation was inactive: 16.6%.

`CCOC(=O)c1c(C)[nH]c(C)c1S(=O)(=O)NCC(=O)NCc1ccc(C)cc1`: the activation was inactive: -40.4%.

Regarding `CCN(CC)S(=O)(=O)c1ccc2c(c1)nc(CN(C)C(=O)Nc1ccc(Cl)cc1)n2C`, the activation was inactive: 2.49%.

Turning to `Cc1ccc(S(=O)(=O)NC(=O)NC2CCCCC2)cc1`, the activation was inactive: -9.92%.

As for `Cc1ccc(NC(=O)CNC(=O)Cn2c(C)cc3ccccc3c2=O)cc1F`, the activation was inactive: -7.8%.

Turning to `O=C(Cn1c(=O)n(Cc2ccc(Cl)cc2)c(=O)c2cccnc21)Nc1ccccc1C(F)(F)F`, the activation was inactive: -2.66%.

As to `CN(Cc1ccc(F)cc1)S(=O)(=O)c1nnc(NC(=O)c2ccccc2Br)s1`, the activation is inactive: 6.2%.

On to `Cn1c(=O)oc2cc(S(=O)(=O)N3CCC(C(=O)NCc4ccccc4)CC3)ccc21`, for which the activation is inactive: 16.9%.

For `O=C(NCc1cccn1Cc1ccccc1)Nc1cccc(C(F)(F)F)c1`, the activation is inactive: 12.5%.

For `CCOC(=O)c1c(C)c(-c2ccccc2)n(CC(=O)NCc2cccc(OC)c2)c1C`, the activation was inactive: 42.9%.

On to `Cc1ccc([N+](=O)[O-])cc1S(=O)(=O)N1CCn2cccc2C1c1ccccc1F` (stereo not drawn), for which the activation is inactive: -7.31%.
